The list shows a part of the results.
What was measured:
HSkMC = human skeletal muscle cells; assay: cytotoxicity call (relative viability < 0.9); details: 10 µM
S. aureus RN4220 = assay: growth inhibition call (relative growth <= 0.2); details: 50 µM

Structure (SMILES)	cytotoxicity call (HSkMC)	growth inhibition call (S. aureus RN4220)
C[C@@H]1CN([C@@H](C)CO)C(=O)CCCn2nncc2CO[C@H]1CN(C)Cc1ccc2c(c1)OCCN2C	inactive	inactive
C[C@@H]1CN([C@@H](C)CO)C(=O)Cc2cc(NC(=O)Nc3cccc4ccccc34)ccc2O[C@@H]1CN(C)S(=O)(=O)c1ccc(F)cc1	inactive	inactive
COc1ccc([Si](C)(C)[C@@H]2[C@@H](CCOC(=O)NCCCCCC(=O)NO)O[C@]3(C(=O)N(Cc4ccccc4)c4ccc(I)cc43)[C@H]2C)cc1	inactive	inactive
C[C@H](CO)N1C[C@H](C)[C@@H](CN(C)Cc2ccncc2)Oc2cc(C#CCN(C)C)ccc2S1(=O)=O	inactive	inactive
C[N+](C)(C)CCCC[C@@H]1NC(=O)[C@H]2C[C@@H](C(=O)NCCCCCCN)[C@@H](c3ccc(O)cc3)N2C1=O	inactive	inactive
Cc1ccc(S(=O)(=O)Nc2ccc3c(c2)C(=O)N([C@@H](C)CO)C[C@H](C)[C@H](CN(C)C(=O)Nc2cccc4ccccc24)OCCCC[C@H](C)O3)cc1	inactive	inactive
C[C@@H]1CN([C@@H](C)CO)C(=O)CCCn2cc(nn2)CO[C@@H]1CN(C)S(=O)(=O)c1cn(C)cn1	inactive	inactive
